SMILES strings stand for the structures. Screen size: about 3,200 compounds; about 75 (2%) showed an effect of 50% or more. The list shows a part of the results.

For the experiment, the system named is T1, S. aureus MSSA476.
T1 construct: MSSA476
More on the design: species or system S. aureus MSSA476 (TSB) or V. cholerae SAD30 (LB); 384-well bacterial growth screen at 25 uM, OD600 relative to DMSO control. Particulars: relative growth, OD600, TSB; 25 µM; inhibitor.
As for `Cc1ccc(NC(=O)C(C#N)=Cc2ccsc2)c(C)c1` [9-M19, 2-cyano-N-(2,4-dimethylphenyl)-3-(thiophen-3-yl)prop-2-enamide], the “% of control remaining” value is 106.966%.

As for `N#CC(=Cc1ccccc1O)C(=O)Nc1cccc2ncccc12` [9-G04, 2-cyano-3-(2-hydroxyphenyl)-N-(quinolin-5-yl)prop-2-enamide], the “% of control remaining” value is recorded as 94.382%.

With `COCc1noc(CN2CCN(C(=O)C(C)Cl)CC2)n1` (stereo not shown) [7-I06, 2-chloro-1-(4-{[3-(methoxymethyl)-1,2,4-oxadiazol-5-yl]methyl}piperazin-1-yl)propan-1-one], the “% of control remaining” value was 111.774%.

For the molecule `CC(Cl)C(=O)NCc1conc1C1CCC1` (stereo not shown) [5-L21, 2-chloro-N-[(3-cyclobutyl-1,2-oxazol-4-yl)methyl]propanamide], the “% of control remaining” value came to 115.847%.

On to `C=CC(=O)NCCc1ccc(S(C)(=O)=O)cc1` [2-A14, N-[2-(4-methanesulfonylphenyl)ethyl]prop-2-enamide], for which the “% of control remaining” value amounted to 121.497%.

In the case of `CC(Cl)C(=O)Nc1ccc(S(=O)(=O)N2CCCC2)cc1` (stereo not shown) [6-M13, 2-chloro-N-[4-(pyrrolidine-1-sulfonyl)phenyl]propanamide], the “% of control remaining” value is recorded as 92.878%.

In the case of `CC(Cl)C(=O)NCCc1nnc(C(C)C)s1` (stereo not shown) [7-E03, 2-chloro-N-{2-[5-(propan-2-yl)-1,3,4-thiadiazol-2-yl]ethyl}propanamide], the “% of control remaining” value came out at 86.9702%.

With `C=CC(=O)NCc1nc(C(C)(C)O)n[nH]1` [2-E15, N-{[3-(2-hydroxypropan-2-yl)-1H-1,2,4-triazol-5-yl]methyl}prop-2-enamide], the “% of control remaining” value worked out at 102.35%.

On to `CC(Cl)C(=O)N1CCN(C(C)c2cccc(C#N)c2)CC1` (stereo not shown) [7-P22, 3-{1-[4-(2-chloropropanoyl)piperazin-1-yl]ethyl}benzonitrile], for which the “% of control remaining” value came to 115.542%.

As for `CNC(=O)C(F)(F)C1(O)CCN(C(=O)CCl)CC1` [5-F03, 2-[1-(2-chloroacetyl)-4-hydroxypiperidin-4-yl]-2,2-difluoro-N-methylacetamide], the “% of control remaining” value is 73.9526%.

On to `Cc1cccc(NC(=O)CCl)c1C` [4-D04, 2-chloro-N-(2,3-dimethylphenyl)acetamide], for which the “% of control remaining” value amounted to 89.5665%.

Regarding `COc1cc(NC(=O)CCl)cc(OC)c1` [4-G09, 2-chloro-N-(3,5-dimethoxyphenyl)acetamide], the “% of control remaining” value turned out to be 119.295%.

As to `CC(Cl)C(=O)N1CCN(Cc2ccnn2C)CC1` (stereo not shown) [7-I22, 2-chloro-1-{4-[(1-methyl-1H-pyrazol-5-yl)methyl]piperazin-1-yl}propan-1-one], the “% of control remaining” value is recorded as 96.3893%.

In the case of `N#CC(=Cc1ccco1)C(=O)NS(=O)(=O)c1cccc2cnccc12` [9-H20, 2-cyano-3-(furan-2-yl)-N-(isoquinoline-5-sulfonyl)prop-2-enamide], the “% of control remaining” value is reported as 76.1049%.

Take `CC(c1ccc(S(N)(=O)=O)cc1)N(C)C(=O)CCl` (stereo not shown) [7-H12, 2-chloro-N-methyl-N-[1-(4-sulfamoylphenyl)ethyl]acetamide]: the “% of control remaining” value is recorded as 76.2951%.

For the molecule `Cc1c(C(=O)N2CCN(C(=O)C(C)Cl)CC2)sc2ccccc12` (stereo not shown) [7-H09, 2-chloro-1-[4-(3-methyl-1-benzothiophene-2-carbonyl)piperazin-1-yl]propan-1-one], the “% of control remaining” value is given as 115.542%.

Consider `Cn1ncc(C(=O)CCl)n1` [10-J10, 2-chloro-1-(2-methyl-2H-1,2,3-triazol-4-yl)ethan-1-one], for which the “% of control remaining” value is 82.5%.

In the case of `C=CC(=O)NC1CCCN(Cc2ccccc2)C1` (stereo not shown) [1-K12, N-(1-benzylpiperidin-3-yl)prop-2-enamide], the “% of control remaining” value is listed as 116.396%.

Regarding `CC(C)CN(C(=O)CCl)C1CCS(=O)(=O)C1` (stereo not shown) [4-D12, 2-chloro-N-(1,1-dioxo-1lambda6-thiolan-3-yl)-N-(2-methylpropyl)acetamide], the “% of control remaining” value came out at 97.9514%.

For the molecule `C=CC(=O)N(C1CCCC1)C(C)c1nnc2ccccn12` (stereo not shown) [2-B07, N-cyclopentyl-N-(1-{[1,2,4]triazolo[4,3-a]pyridin-3-yl}ethyl)prop-2-enamide], the “% of control remaining” value is 120.801%.

Turning to `CCC(C)c1ccccc1NC(=O)CCl` (stereo not shown) [6-K11, N-[2-(butan-2-yl)phenyl]-2-chloroacetamide], the “% of control remaining” value came to 101.415%.

As for `COCC(NC(=O)C(C)Cl)c1cccc(C#N)c1` (stereo not shown) [6-L19, 2-chloro-N-[1-(3-cyanophenyl)-2-methoxyethyl]propanamide], the “% of control remaining” value amounted to 110.634%.

On to `O=C(CCl)N(Cc1ccco1)C12CC3CC(CC(C3)C1)C2` [4-J18, N-(adamantan-1-yl)-2-chloro-N-[(furan-2-yl)methyl]acetamide], for which the “% of control remaining” value stood at 116.246%.

In the case of `O=C(CCl)NCC1CCN(C(=O)c2ccccc2)CC1` [7-L06, N-[(1-benzoylpiperidin-4-yl)methyl]-2-chloroacetamide], the “% of control remaining” value is 77.865%.

As to `C=CC(=O)N(Cc1cc(C)c2ncccc2c1)C(C)C1CCCO1` (stereo not shown) [1-P15, N-[(8-methylquinolin-6-yl)methyl]-N-[1-(oxolan-2-yl)ethyl]prop-2-enamide], the “% of control remaining” value was determined as 82.6374%.

Turning to `CC(Cl)C(=O)NCCNC(=O)c1ccoc1` (stereo not shown) [7-E21, 2-chloro-N-{2-[(furan-3-yl)formamido]ethyl}propanamide], the “% of control remaining” value is reported as 108.32%.

With `C=CC(=O)NCCc1coc(-c2ccc(C)cc2)n1` [1-M06, N-{2-[2-(4-methylphenyl)-1,3-oxazol-4-yl]ethyl}prop-2-enamide], the “% of control remaining” value turned out to be 103.033%.

As for `O=C(CCl)c1ccc(F)cc1F` [10-I18, 2-chloro-1-(2,4-difluorophenyl)ethan-1-one], the “% of control remaining” value came to 136.563%.

On to `C=CC(=O)NCC1CN(Cc2cccc(C)c2)CCO1` (stereo not shown) [3-A05, N-({4-[(3-methylphenyl)methyl]morpholin-2-yl}methyl)prop-2-enamide], for which the “% of control remaining” value was found to be 87.4184%.

With `CCCNC(=O)C(C#N)=Cc1ccc(-n2cncn2)c(C)c1` [9-C05, 2-cyano-3-[3-methyl-4-(1H-1,2,4-triazol-1-yl)phenyl]-N-propylprop-2-enamide], the “% of control remaining” value was 106.966%.

Take `C=CC(=O)NCc1cc(Cl)c2c(c1)OCO2` [2-F15, N-[(7-chloro-1,3-dioxaindan-5-yl)methyl]prop-2-enamide]: the “% of control remaining” value came out at 114.534%.

Consider `C=CC(=O)NC(C)c1ccc2c(c1)CCC2` (stereo not shown) [3-F09, N-[1-(2,3-dihydro-1H-inden-5-yl)ethyl]prop-2-enamide], for which the “% of control remaining” value is 109.012%.

In the case of `CC(Cl)C(=O)N1CCN(C(=O)Cc2cccc(Cl)c2)C(C)C1` (stereo not shown) [7-E20, 2-chloro-1-{4-[2-(3-chlorophenyl)acetyl]-3-methylpiperazin-1-yl}propan-1-one], the “% of control remaining” value is recorded as 99.843%.

Regarding `O=C(CCl)NC1CCN(C(=O)c2ccco2)c2ccccc21` (stereo not shown) [5-O07, 2-chloro-N-[1-(furan-2-carbonyl)-1,2,3,4-tetrahydroquinolin-4-yl]acetamide], the “% of control remaining” value stood at 112.933%.

For `CC(Cl)C(=O)N1CCOC(c2ccnc(N(C)C)n2)C1` (stereo not shown) [6-L05, 2-chloro-1-{2-[2-(dimethylamino)pyrimidin-4-yl]morpholin-4-yl}propan-1-one], the “% of control remaining” value turned out to be 76.1463%.

With `O=C(CCl)NCCc1c[nH]c2c(F)c(F)c(F)cc12` [7-H16, 2-chloro-N-[2-(5,6,7-trifluoro-1H-indol-3-yl)ethyl]acetamide], the “% of control remaining” value is given as 86.3422%.

For `CC(Cl)C(=O)N1Cc2cnn(C)c2C1` (stereo not shown) [7-K09, 2-chloro-1-{1-methyl-1H,4H,5H,6H-pyrrolo[3,4-c]pyrazol-5-yl}propan-1-one], the “% of control remaining” value turned out to be 97.6452%.

Consider `O=C(CCl)c1cc(Cl)sc1Cl` [10-D16, 2-chloro-1-(2,5-dichlorothiophen-3-yl)ethan-1-one], for which the “% of control remaining” value is 79.375%.

With `Cc1cc(C(=O)CCl)c(C)[nH]1` [10-J08, 2-chloro-1-(2,5-dimethyl-1H-pyrrol-3-yl)ethan-1-one], the “% of control remaining” value came to 109.688%.

For the molecule `O=C(CCl)NCCC1CCCC1(F)F` (stereo not shown) [7-P04, 2-chloro-N-[2-(2,2-difluorocyclopentyl)ethyl]acetamide], the “% of control remaining” value is listed as 128.414%.

As for `C=CC(=O)N1CCC(C(=O)NCc2ncc(N(C)C)cn2)CC1` [3-L03, N-{[5-(dimethylamino)pyrimidin-2-yl]methyl}-1-(prop-2-enoyl)piperidine-4-carboxamide], the “% of control remaining” value turned out to be 91.2495%.

For the molecule `N#CC(=Cc1csc2ccccc12)C(=O)NCc1ccco1` [9-D16, 3-(1-benzothiophen-3-yl)-2-cyano-N-[(furan-2-yl)methyl]prop-2-enamide], the “% of control remaining” value is on record as 104.27%.

`C=CC(=O)NC(c1ccc(F)cc1)c1ccccn1` (stereo not shown) [3-N14, N-[(4-fluorophenyl)(pyridin-2-yl)methyl]prop-2-enamide]: the “% of control remaining” value was determined as 82.8907%.

In the case of `C#CCN(C(=O)c1ccc(NC(=O)C=C)cc1)C1CCCCC1` [3-D13, N-cyclohexyl-4-(prop-2-enamido)-N-(prop-2-yn-1-yl)benzamide], the “% of control remaining” value was found to be 117.37%.

With `CC(NC(=O)C(C#N)=Cc1cccc(Cl)c1Cl)c1ccccc1` (stereo not shown) [9-N04, 2-cyano-3-(2,3-dichlorophenyl)-N-(1-phenylethyl)prop-2-enamide], the “% of control remaining” value is given as 0.5993%.

`O=C(CCl)N(Cc1ccc2c(c1)CCO2)C1CCCC1` [6-L11, 2-chloro-N-cyclopentyl-N-[(2,3-dihydro-1-benzofuran-5-yl)methyl]acetamide]: the “% of control remaining” value was determined as 91.5122%.

The values above are taken from article PMC11995724, “Antibiotic target discovery by integrated phenotypic and activity-based profiling of electrophilic fragments” (Cell chemical biology, 2025).
